Source: ChEMBL document CHEMBL4888484, “Replenishing the malaria drug discovery pipeline: Screening and hit evaluation of the MMV Hit Generation Library 1 (HGL1) against asexual blood stage Plasmodium falciparum ,using a nano luciferase reporter read-out” (2022)
The whole screen tested about 150,000 compounds, of which about 540 (0.36%) showed an effect of 50% or more. This is one part of the list.

Tested on: Plasmodium falciparum
Experiment: Primary screen in NF54 nanoGlo assay, in single point, at 2uM, 72h; a lower Z score goes with more inhibition
Type: functional, Erythrocyte
Conditions: timepoint 72 hour

SMILES | % Inhibition | Z score
CCn1ccc2cc(CCC(=O)NCc3ccco3)ccc21 | -6% | 0.96
O=C(Nc1ccc2c(c1)OCO2)C1CCN(C(=O)c2ccc(N3CCCC3=O)cc2)CC1 | 13% | -1.53
COc1ccc(C(=O)N2C[C@H]3CCCC(=O)N[C@H]3C2)c(C)c1 | -5% | 0.8
O=C(OCc1cn(-c2ccc(F)cc2Cl)nn1)c1cscn1 | -11% | 1.57
CC(CC1CCOCC1)NC(C)C(=O)Nc1ccccc1 (configuration not stated) | -7% | 0.66
Cc1ccc(NC(C)(C)C(=O)NC2CCN(Cc3ccco3)CC2)cc1 | -7% | 0.63
COc1ccc([C@@H]2CC[C@@H](C(=O)O)N2S(=O)(=O)c2ccsc2)cc1 | -7% | 1.48
COC[C@@H]1CCCN1C(=O)Nc1cc(-c2nnc(C)o2)ccc1OC | -9% | 1.09
Cc1occc1C(=O)NCC(F)(F)CN | -6% | 0.67
FCCOc1ccc(-c2cccc3c2OCCCO3)nc1 | -13% | 1.28
Cc1cccc(N2CCN(c3cc(C)nc4nc(-c5ccccc5)nn34)C[C@@H]2C)c1 | 9% | -1.33
Cc1oc2nc(CN(C)Cc3ccc(F)cc3)nc(N)c2c1C | -2% | 0.2
CCc1ccc(S(=O)(=O)Nc2cccc(C3OCCCO3)c2)cc1 | -2% | 0.25
Cc1ccc2nc(CN3CC[C@H](N4CCOCC4)[C@H](CCCO)C3)cn2c1 | 2% | -0.28
O=C(NC[C@H]1CCCN(c2ncccn2)C1)C1(N2CCCC2)CCCC1 | -1% | 0.15
Cc1cccc(C)c1N1CCN(C(=O)c2coc(CN3CCN(C[C@H](O)C(C)C)CC3)n2)CC1 | -25% | 2.19
O=C(Cc1ccsc1)NCC1(Cn2ccnc2)CC1 | -4% | 0.58
CN1CCC(Oc2nc3ccc(F)cc3o2)CC1 | -11% | 1.44
CC(C)NC(=O)N[C@@H]1CC[C@H]2CCOc3ccccc3C(=O)N3CCNC[C@H]3C(=O)NC[C@H]1O2 | -11% | 1.74
CN1CC(=O)N([C@H]2CCCc3cnccc32)C1=O | -4% | 0.44
C[C@H]1C(=O)N(c2cccc3ccccc23)CCN1Cc1ccc(F)cc1 | -3% | 0.42

SMILES | % Inhibition | Z score
Cc1cc(C(=O)N2CC(C)(C)N(C(=O)c3cc(C)nn3C)C[C@@H]2C)n(C)n1 | 2% | -0.28
COCCOC1CN(C(=O)C(C)(C)c2cccnc2)C1 | 2% | -0.29
O=C(CN1CCN([C@H]2CCOC2)CC1)Nc1nc2ccc(F)cc2s1 | -6% | 0.81
Fc1cnccc1N[C@H]1CCCN(c2ncccn2)C1 | -7% | 1.14
N#Cc1ccc(CO[C@@H](CN2CCN(C(=O)c3cccs3)CC2)c2cccc(N3CCCC3)c2)cc1 | -12% | 1.57
Cc1oc(C)c(C(=O)NCCc2ccccn2)c1Br | -13% | 1.31
O=C1NC(=O)[C@@H]2CN(C(=O)Nc3cc(F)c(F)cc3N3CCCCC3)C[C@H]12 | -6% | 1.16
CCc1nnc([C@H](C)n2ccc(C(F)(F)F)n2)o1 | -19% | 2.9
Cc1cnc(C(=O)N[C@@H]2CCC[C@@H]2C(=O)NCCCc2ccccc2)cn1 | -5% | 0.68
Cn1cc(-c2ccc3c(c2)OCC[C@@H]2CC[C@H](O)[C@@H](CNC(=O)[C@@H]4CN(C5CCC(F)(F)CC5)CCN4C3=O)O2)cn1 | 1% | -0.11
COC(=O)NCc1ccc(N[C@H]2CCCN(c3ccccc3Cl)C2=O)cc1 | 1% | -0.08
COc1cc(C(=O)NCc2noc(C3CCCC3)n2)cc(OC)c1OC | -3% | 0.39
CCc1ccc(CN(C)Cc2c[nH]nc2-c2ccc3cc(OC)ccc3c2)nc1 | 10% | -1.27
CNC(=O)[C@@H]1CCCN1C(=O)NCc1cnc(CC(C)C)s1 | 3% | -0.4
C[C@H]1CCc2c(cnc3c(C(=O)NC4CC4)cnn23)C1 | 34% | -4.89
Cc1nsc(NC(=O)N(C)C2CCCCCC2)n1 | -12% | 1.52
Cc1cc(C)n(CCNCc2cc3ccc(F)cc3n(Cc3ccccn3)c2=O)n1 | 11% | -1.47
COc1ccc(CCNC(=O)c2cc3c(=O)[nH]c(C)cn3n2)cc1OC | 61% | -7.83
CN1CCN(C(=O)[C@@H]2COC3(CCN(C(=O)c4cccc(F)c4)CC3)N2C(=O)c2ccc(F)cc2)CC1 | -10% | 1.57
Cn1nc2c(c1C(=O)NCc1csc(N)n1)CCCC2 | 5% | -0.77
